Reference: publication PMC12136788
Positions count from the first letter of the chain named. This is one part of the list.

T1: UNK ZnF1-3 (human, UniProt Q9C0B0 31-174)
T1 sequence: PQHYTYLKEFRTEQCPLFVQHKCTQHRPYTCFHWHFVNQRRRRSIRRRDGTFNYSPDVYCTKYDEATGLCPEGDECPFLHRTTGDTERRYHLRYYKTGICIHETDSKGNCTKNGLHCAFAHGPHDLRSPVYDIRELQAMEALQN

B1: 106595634_106595754_4042_CDS_ENSMUSG00000040661_ENSMUST00000046502|mouse|control|control (ssRNA)
RNA: GGGAGUUCUACAGUCCGACGAUCGGACCGUCGACGGACUGAUUCCUGGGUGACAGACGGAGUAGCCAACUUUCGCUUAUGGCCCCUUAAGUCCAGCACUGGGUGCCUGCCACCACUGGGCUGGCCAGUCACCAAGAGGGAACUCAACAGAGGAUUGAGCAUCA
B2: chr4:120733482:120733483:-_ENSMUSG00000043207_ENSMUST00000058754|mus_mus|FALSE|FALSE (ssRNA)
RNA: GGGAGUUCUACAGUCCGACGAUCGUUUUAAGAAAUGGAUUAUUAAAAUCAUUUUUGAAAUGAGAUAGUAAAUGUAUUUAAAUCUGGACUUUUAUGUACGUAAUCAUUUUUCUUAAAAAAAUUAAAAACAUCAAGAGCCGGAACCAACAGAGGAUUGAGCAUCA
B3: 144403502_144406234_989_CDS_ENSG00000184428_ENST00000329245|human|control|control (ssRNA)
RNA: GGGAGUUCUACAGUCCGACGAUCCACGGUGUCGGCCGCCUCACCGUCCUCCUUCUCAUUUCCUGCUCUCAGUGCCAGCUUAUCGAUGAAAUACAGGGCCACCGCCCGCUGUCUCGUCUUCAUUUCCCGAGACUUCCAGUCAGCCAACAGAGGAUUGAGCAUCA
B4: 193054621_193054741_2180_3pUTR_ENSG00000116747_ENST00000432079|human|control|control (ssRNA)
RNA: GGGAGUUCUACAGUCCGACGAUCGUGAAUGAGGGGGAGUUAAGCGCUUGAAACAUUUUAUAUUAUUUACACUUAAGAGUAUGAAAAACAGUGUGAGACUACAUCUGGCUAUGUUAUUAUAAUUCAGAGGAAAUCAUUAUCAAGCAACAGAGGAUUGAGCAUCA
B5: chr4:11413230:11413231:+_ENSMUSG00000040720_ENSMUST00000059914|mus_mus|motif|central (ssRNA)
RNA: GGGAGUUCUACAGUCCGACGAUCAAACGAACCACAUCUAUAUGAGAACUUUGCUCAGCGCUCGGAUGUUUAAAAGUAUCGGAAAAUAGCAGCUCCAUAGACGAGUCCACCGCCAUGUCUGCCGCGGGCGGGGGACCGGGAGAUCAACAGAGGAUUGAGCAUCA
B6: chr14:76420884:76420885:+_ENSG00000119685_ENST00000298832|hu_hu|FALSE|FALSE (ssRNA)
RNA: GGGAGUUCUACAGUCCGACGAUCCUACUGCCACUUCUGCUCGAAGGCUUUGGGGACUUUGAGGCAGCAAAAAAAAAAAUACUAUGGACCCCUUGAAGUGCUGGUGGAUGCUUCACCCUCAAUCAUGCACCCAGGAGUGGUGAACAACAGAGGAUUGAGCAUCA
B7: chr4:144460044:144460045:+_ENSG00000153147_ENST00000283131|hu_mus|hu_hu_hu_mus_False|1_98 (ssRNA)
RNA: GGGAGUUCUACAGUCCGACGAUCACGGUCCAUAGCCUGAAGAUCUACUUGCGGAUUCCAAUCUGAGUCAUAUAAAAUGACUACAUCAGCAGUUGCAAGAUUGAUGCCCAGACCACCAGCACGUGUGCUUAGCAUAAAAACAAACAACAGAGGAUUGAGCAUCA
B8: chr4:148551591:148551592:-_ENSMUSG00000063077_ENSMUST00000060537|mus_hu|mus_mus_mus_hu_False|1_28 (ssRNA)
RNA: GGGAGUUCUACAGUCCGACGAUCACCUGACAAAAUUAAAUAUCCCUGUAAAUUAGACAAUAAGCAGCAGGCAACAAAGUCUUUGCUUUGGAAUAUGUGCCAGGAAAAAUCAUGUUUUUUUUAGAUCUCAAGAGACACAACCAUCAACAGAGGAUUGAGCAUCA
B9: chr4:144460044:144460045:+_ENSG00000153147_ENST00000283131|hu_mus|hu_hu_hu_mus_False|18_98 (ssRNA)
RNA: B7 RNA with U123C, A138U
B10: 120115652_120115772_1370_3pUTR_ENSG00000163430_ENST00000295633|human|control|control (ssRNA)
RNA: GGGAGUUCUACAGUCCGACGAUCUUGCAAAACAAAUAAACAAAAUAAAACUCAUUGCUAUAUAAGCAAAUACUGGUGAUUUGGCGACUGUAGCAGACACUUGUGUAUACUGAACUCAGCGCUGAAGUGGAGAAGAUGCUGGGACAACAGAGGAUUGAGCAUCA
B11: chr2:216981417:216981418:+_ENSG00000079246_ENST00000392132|hu_hu|hu_hu_hu_mus_True|18_58 (ssRNA)
RNA: GGGAGUUCUACAGUCCGACGAUCCUGAUACUGGUCCUUGCCAGCAAGGGCAUUAUCAGUGCCAUCUGUGCCAUAGAGGACUAAAGCAAUCUCAUCUUUGCUCUCCGAAAAUACCUGUCGCUGUACAAACAUAGUCAUCACUUUCAACAGAGGAUUGAGCAUCA
B12: 37144847_37144967_1003_CDS_ENSG00000170471_ENST00000397040|human|control|control (ssRNA)
RNA: GGGAGUUCUACAGUCCGACGAUCAAAUAUUUGAGGCAGAUGUUUAAGGCAGGGAUACUGAUUCAAUUCUUGCGGCAUUCCGCUCACAUUCAAGAACUGUUCCUGAAAUUUGGGAGUAGAGCUUAUAAUAGCUGGGUUACUCAACAACAGAGGAUUGAGCAUCA
B13: chr1:150204182:150204183:-_ENSG00000143401_ENST00000314136|hu_mus|FALSE|FALSE (ssRNA)
RNA: GGGAGUUCUACAGUCCGACGAUCCAAGCUGGGAAGCCGGGCCAAGGAACUCAACUCCACGUUGGCCAUGCUAAGAAACUCCAGUUCCUUAAAGGUGUCAUUCAGGCCUUCGAUUUCCCCAUUGACACACAAGCAAUUAUCGAGCAACAGAGGAUUGAGCAUCA
B14: chr2:74706439:74706440:+_ENSMUSG00000027099_ENSMUST00000155844|mus_mus|motif|central (ssRNA)
RNA: GGGAGUUCUACAGUCCGACGAUCGUCUGAUCUCAAGCCUUAUCCUCUUAUACCUCUGCAGUCAGCAGCAUAUUGUUGACGGAUUCCAUGUAGGCUUUCAUUUCUGCUUUUUGGACUUCAUCCAACCCAUCACUAAGAGAAUGGCAACAGAGGAUUGAGCAUCA

target: T1, UNK ZnF1-3; test: nsRBNS (natural sequence RNA bind-n-seq); RBNS binding buffer (assumed for nsRBNS): 25 mM Tris pH 7.5, 150 mM KCl, 3 mM MgCl2, 0.01% Triton X-100, 500 ug/ml BSA, 20 U/ml SUPERase-In, 4 C; UNK is unkempt and MSI1 is Musashi-1; names of the RNAs are library labels; protein concentration not given here; high values mean tight binding

With B1 as the binder, how does the binding signal read?
Its binding signal is 0.48 enrichment R.

Which binding signal does the source give for B2 here?
Its binding signal is 1.31 enrichment R.

For B3, which binding signal is on record?
Its binding signal is 1.04 enrichment R.

How did the binding signal turn out when B4 was run?
The binding signal was 2.25 enrichment R.

How did the binding signal turn out when B5 was run?
The binding signal was 0.992 enrichment R.

How did the binding signal turn out when B6 was run?
The binding signal was 1.85 enrichment R.

With B7 as the binder, how does the binding signal read?
Its binding signal is 1.26 enrichment R.

For B8, which binding signal is on record?
Its binding signal is 1.11 enrichment R.

With B9 as the binder, how does the binding signal read?
The binding signal was 1.13 enrichment R.

B10 was tested. Which binding signal did it give?
Its binding signal is 2.45 enrichment R.

Which binding signal does the source give for B11 here?
Its binding signal is 0.935 enrichment R.

Which binding signal does the source give for B12 here?
The binding signal was 1.64 enrichment R.

With B13 as the binder, how does the binding signal read?
Its binding signal is 0.861 enrichment R.

With B14 as the binder, how does the binding signal read?
The binding signal was 0.6 enrichment R.
